Source: patent publication US12478634B2, “Compositions and methods for treating muscular dystrophy and other disorders” (The Charlotte Mecklenburg Hospital Authority, priority 2016, dated 2025)

Tested on: FKRPP448L mutant mice
Test: IIH6 staining of glycosylated α-dystroglycan in muscles of ribulose-treated mice
Type: in vivo, mouse
Conditions: 0.8 g/kg bodyweight ribulose intravenously weekly for 1 month
Description: C57, normal mouse. […] Animals were treated with ribulose for 4 weeks with weekly injection of 0.8 g/kg bodyweight. Animal tissues were collected at the end of 4 weeks and processed for sections, fixed, stained with the IIH6 antibody and visualized as membrane staining for the glycosylated a-DG. […] There is wide spread staining in the majority of muscle fibers in the ribulose treated samples whereas barely any signal is observed in the control samples. The signals in the C57 mice are the strongest.

## O=C(CO)[C@H](O)[C@H](O)CO [ribulose]
  membrane staining for functionally glycosylated α-dystroglycan (IIH6): the majority of the muscle fibers are positive
